# Data reported in PubChem BioAssay AID686978 (National Center for Advancing Translational Sciences (NCATS), 2013).
# Out of some 420,000 compounds screened, about 64,000 (15%) were called active. Inconclusive results, whose numbers are uncertain, are shown with a selection of clear calls. Calls come from the whole dose curve; as a rule, active = well fitted inhibition curve with a large enough effect; inconclusive = small, poorly fitted or top-dose-only effect; inactive = flat fitted curve, though single readings scatter. No potency is given beside an inconclusive call; the fits are too rough.
# Assay: qHTS for Inhibitors of human tyrosyl-DNA phosphodiesterase 1 (TDP1): qHTS in cells in absence of CPT; note: nearly all actives have a fitted effect of over 55% in size
# Settings: DT40 Tdp1-/- hTDP1 cells, no CPT, ATP luminescence, 48 h; activity change, negative = growth inhibition: at 46.2 µM (top of the series)
# Summary of the method: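 Readout: luminescence from CellTiter-Glo after 30 min in the dark at RT. Cells: DT40 Tdp1-/- with stable hTDP1, 400/well. Exposure: compounds alone, ≥48 hr, 37 °C.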
# % is set by controls: 0 for no effect and ±100 for the full control effect; potency is the fitted concentration of half-maximal effect; tags give direction and shape of the fitted curve.
SMILES,"activity change, negative = growth inhibition",Potency
CCOC(=O)c1ccc(NC(=O)Cn2cc(S(=O)(=O)Cc3ccccc3F)c3ccccc32)cc1,inactive: -26.3%,
O=C(NCCN1CCN(c2ccccc2)CC1)c1ccccc1F,inactive: 10.9%,
Cc1ccc(-c2csc(NC(=O)C3=NN(c4ccccc4)C(=O)CC3)n2)cc1,,"inconclusive [inhibitor, single point]"
Cc1ccc2c(c1)C(c1ccccc1)N(C(=O)c1cccc([N+](=O)[O-])c1)CC(=O)N2 (stereo not given),,"inconclusive [inhibitor, single point]"
Cc1ccc(Cn2cc3c(n2)-c2c(oc(C(=O)Nc4ccc(F)cc4F)c2C)CC3)cc1,,"inconclusive [inhibitor, partial curve]"
Nn1c(SCC(=O)N2CCOCC2)nnc1-c1cccnc1,inactive: 1.83%,
OC(c1ccccc1)(c1nc(-c2csc3ccccc23)cs1)C(F)(F)F (stereo not given),,"inconclusive [inhibitor, single point]"
O=C(CSc1nc2ccccc2s1)N1c2ccccc2Sc2ccc(C(F)(F)F)cc21,,active: 14.6 µM
Cc1ccsc1C(=O)OCC(=O)Nc1ccc(Cl)cn1,inactive: 18.2%,
Cc1nc(SCC(=O)Nc2ccc(Cl)cc2C(F)(F)F)[nH]c(=O)c1Cc1ccccc1,inactive: -24.8%,
CC(C)(C)c1ccc(S(=O)(=O)N2CC(=O)Nc3ccccc32)cc1,,"inconclusive [inhibitor, single point]"
O=C(CN1CCN(S(=O)(=O)c2ccc(Br)s2)CC1)N1CCc2ccccc21,,"inconclusive [inhibitor, single point]"
Cc1c(Cc2ccc3c(c2)OCO3)sc(NC(=O)C(C)(C)C)c1C#N,,active: 8.2 µM
COc1ccc(/C=N/NC(=O)C2C(C=C(Cl)Cl)C2(C)C)c(OC)c1 (stereo not given),,"inconclusive [inhibitor, single point]"
Cc1cc(C)cc(NC(=O)CNC(c2ccccc2)c2ccccc2)c1,,active: 10.3 µM
CC1CCC(NC(=O)c2ccc(NS(=O)(=O)c3ccc4[nH]c(=O)[nH]c4c3)cc2)CC1 (stereo not given),,"inconclusive [inhibitor, single point]"
O=C(NCCO)c1ccc(Oc2ccc(C(F)(F)F)cc2[N+](=O)[O-])cc1,inconclusive: -35.8% [inhibitor],
CCN(Cc1ccccc1)C1CCN(Cc2ccc(SC)cc2)CC1,,"inconclusive [inhibitor, single point]"
CC(C)N1CCc2c(sc(NC(=S)NC(=O)c3ccccc3)c2C#N)C1,,"inconclusive [inhibitor, partial curve]"
COc1ccc(CCN(C)C(=O)CN2C(=O)NC3(CCCCCC3)C2=O)cc1OC,inactive: -26.3%,
